Laboratory results as given in the supplement of paper PMC12067093, “Discovery and optimisation of a covalent ligand for TRIM25 and its application to targeted protein ubiquitination” (Chemical Science, 2025).
Of roughly 21,000 targets only a part is listed; those with the largest changes were picked by preference.

Compound: CC1Cc2ccccc2N1C(=O)C1CCCN(C1)C(=O)CCl (mixture of isomers) [TRIM25 ligand 11 (diastereomer mixture)]
Test: probe-labelled cysteine peptide fold change vs DMSO (competition) (log2 fold change); higher = less target engagement (more negative = stronger competition)
Settings: THP-1, incubation time: 4 h
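Also: competitive chemoproteomic profiling in live THP-1 cells with an iodoacetamide desthiobiotin (IA-DTB) probe, comparing probe-labelled peptide intensities in compound-treated cells against DMSO-treated controls.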

Target	probe-labelled cysteine peptide fold change (10 µM)	probe-labelled cysteine peptide fold change (50 µM)
NRDC_O43847_690_IVNTPQGCLWYKK (UniProt O43847)	-0.377	-0.143
PARK7_Q99497_106_GLIAAICAGPTALLAHEIGFGSK (UniProt Q99497)	-1.12	-4.02
NCF2_P19878_499_VNEEWLEGECK (UniProt P19878)	0.0831	0.123
NTPCR_Q9BSD7_101_NADCSSGPGQR (UniProt Q9BSD7)	0.353	1.25
NF1_P21359_904_LLSLMVCNHEK (UniProt P21359)	-0.0166	-0.0874
NOA1_Q8NC60_272_LWEDCAR (UniProt Q8NC60)	-0.113	0.116
NRAS_P01111_51_KQVVIDGETCLLDILDTAGQEEYSAMRDQYMR<|>HRAS_P01112_51_KQVVIDGETCLLDILDTAGQEEYSAMRDQYMR (UniProt P01112+P01111)	-0.585	-0.344
NUDT16L1_Q9BRJ7_88_VLGLGLGCLR (UniProt Q9BRJ7)	-0.224	-0.197
NIT1_Q86X76_80_LGACLAFLPEAFDFIARDPAETLHLSEPLGGK (UniProt Q86X76)	0.407	-0.633
P4HB_P07237_397_KNVFVEFYAPWCGHCK (UniProt P07237)	-0.364	-0.687
PDCL_Q13371_291_NSATCHSEDSDLEID (UniProt Q13371)	-0.177	-0.396
PCLAF_Q15004_99_ACPLQPDHTNDEKE (UniProt Q15004)	-0.414	-0.612
ODF2_Q5BJF6_708_ECGTLAR (UniProt Q5BJF6)	0.00251	0.561
